Test results as given in US9433687B2, “Anti-Notch3 antibodies and antibody-drug conjugates” (Pfizer Inc., priority 2012, dated 2016).

What was measured:
N87 gastric xenografts = experiment: N87 gastric xenograft model; format: in vivo, mouse
Experimental: Similar in vivo experiments were performed with the N87 gastric cancer cell line as described above. To generate xenografts, nude (Nu/Nu) female mice were implanted subcutaneously with 8×10^6 N87 cells in 50% Matrigel (BD Biosciences).
The N87 gastric model was also dosed intravenously Q4d×4 with PBS vehicle, rat-human chimeric anti-Notch3 ADCs and control huNeg-8.8 ADCs, at a dose of 5 mg/kg as provided in FIG. 16D.
The N87 gastric model was also dosed intravenously Q4d×4 with PBS vehicle and rat-human chimeric anti-Notch3 ADCs ch28-mc0131, ch75-mc0131, ch28-m(H2O)c-0131 and ch75-m(H2O)c-0131 at a dose of 5 mg/kg as provided in FIG. 16E.

[1] = tested on: MDA-MB-468 breast xenografts; experiment: MDA-MB-468 breast xenograft model; format: in vivo, mouse
Experimental: Similar in vivo experiments were performed with the MDA-MB-468 breast cancer cell line as described above. MDA-MB-468 cells are classified as a triple-negative breast cancer (TNBC) basal-like subtype since they lack expression of the estrogen receptor, progesterone receptor and human epidermal growth factor receptor 2 (HER2) (Lehmann, B D, et al, J Clin Invest. 2011; 121(7):2750-2767). To generate xenografts, female SCID Hairless Outbred (SHO) mice were orthotopically implanted with 10×10^6 MDA-MB-468 cells containing 50% Matrigel (BD Biosciences) in the mammary fat pad. […] FIGS. 13A and 13B show graphs of the data from Table 23 of anti-Notch3 ADCs with vc0101 linker-payloads compared to control huNeg-8.8 ADCs and PBS vehicle. FIGS. 14A and 14B show graphs of the data from Table 24 of the anti-Notch3 ADCs with vc6780 linker-payloads compared to control huNeg-8.8 ADC and PBS vehicle.
The MDA-MB-468 breast cancer model was also dosed intravenously Q4d×4 with PBS vehicle, rat-human chimeric anti-Notch3 ADCs and control huNeg-8.8 ADCs, at a dose of 5 mg/kg as provided in FIGS. 16B and 16C.

B1: hu28-vc0101: hu28 conjugated to vc0101 linker-payload (conjugate)
heavy: EVQLVESGGGLVQPGGSLRLSCAASGFTFRDYGMTWVRQAPGKGLEWVAYISSGSNYIYYAEAVKGRFTISRDNAKNSLYLQMNSLRAEDTAVYYCARRGPFVLDAWGQGTLVTVSS[letters of human IgG1 constant region omitted]
light: DIQMTQSPSSLSASVGDRVTITCKASQSINRYLHWYQQKPGKAPKLLIYNANGLQTGVPSRFSGSGSGTDFTLTISSLQPEDFATYYCLQHNTWPDTFGGGTKVEIKRTVAAPSVFIFPPSDEQLKSGTASVVCLLNNFYPREAKVQWKVDNALQSGNSQESVTEQDSKDSTYSLSSTLTLSKADYEKHKVYACEVTHQGLSSPVTKSFNRGEC
tumor volume (N87 gastric xenografts; DAY 112, dose 3 mg/kg intravenously Q4d×4): 126 mm^3 | tumor volume (N87 gastric xenografts; DAY 112, dose 5 mg/kg intravenously Q4d×4): 166 mm^3 | tumor volume (N87 gastric xenografts; DAY 120, dose 3 mg/kg intravenously Q4d×4): 128 mm^3 | tumor volume (N87 gastric xenografts; DAY 120, dose 5 mg/kg intravenously Q4d×4): 226 mm^3 | tumor volume (N87 gastric xenografts; DAY 133, dose 3 mg/kg intravenously Q4d×4): 175 mm^3 | tumor volume (N87 gastric xenografts; DAY 133, dose 5 mg/kg intravenously Q4d×4): 258 mm^3 | animals that were tumor-free (N87 gastric xenografts; by day 133, 5 mg/kg dose group, iv Q4dx4): 6 out of 9 | tumor volume (mm^3 ± SEM) ([1]; Table 23, 0.3 mg/kg i.v. Q4d×4, DAY 0): 336 mm^3 | tumor volume (mm^3 ± SEM) ([1]; Table 23, 0.3 mg/kg i.v. Q4d×4, DAY 4): 403 mm^3 | tumor volume (mm^3 ± SEM) ([1]; Table 23, 0.3 mg/kg i.v. Q4d×4, DAY 7): 395 mm^3 | tumor volume (mm^3 ± SEM) ([1]; Table 23, 0.3 mg/kg i.v. Q4d×4, DAY 11): 412 mm^3 | tumor volume (mm^3 ± SEM) ([1]; Table 23, 0.3 mg/kg i.v. Q4d×4, DAY 14): 488 mm^3 | tumor volume (mm^3 ± SEM) ([1]; Table 23, 0.3 mg/kg i.v. Q4d×4, DAY 18): 497 mm^3 | tumor volume (mm^3 ± SEM) ([1]; Table 23, 0.3 mg/kg i.v. Q4d×4, DAY 21): 509 mm^3 | tumor volume (mm^3 ± SEM) ([1]; Table 23, 0.3 mg/kg i.v. Q4d×4, DAY 26): 590 mm^3 | tumor volume (mm^3 ± SEM) ([1]; Table 23, 1 mg/kg i.v. Q4d×4, DAY 0): 348 mm^3 | tumor volume (mm^3 ± SEM) ([1]; Table 23, 1 mg/kg i.v. Q4d×4, DAY 4): 439 mm^3 | tumor volume (mm^3 ± SEM) ([1]; Table 23, 1 mg/kg i.v. Q4d×4, DAY 7): 415 mm^3 | tumor volume (mm^3 ± SEM) ([1]; Table 23, 1 mg/kg i.v. Q4d×4, DAY 11): 372 mm^3 | tumor volume (mm^3 ± SEM) ([1]; Table 23, 1 mg/kg i.v. Q4d×4, DAY 14): 314 mm^3 | tumor volume (mm^3 ± SEM) ([1]; Table 23, 1 mg/kg i.v. Q4d×4, DAY 18): 261 mm^3 | tumor volume (mm^3 ± SEM) ([1]; Table 23, 1 mg/kg i.v. Q4d×4, DAY 21): 219 mm^3 | tumor volume (mm^3 ± SEM) ([1]; Table 23, 1 mg/kg i.v. Q4d×4, DAY 26): 253 mm^3 | tumor volume (mm^3 ± SEM) ([1]; Table 23, 1 mg/kg i.v. Q4d×4, DAY 29): 238 mm^3 | tumor volume (mm^3 ± SEM) ([1]; Table 23, 1 mg/kg i.v. Q4d×4, DAY 32): 266 mm^3 | tumor volume (mm^3 ± SEM) ([1]; Table 23, 1 mg/kg i.v. Q4d×4, DAY 35): 271 mm^3 | tumor volume (mm^3 ± SEM) ([1]; Table 23, 1 mg/kg i.v. Q4d×4, DAY 39): 310 mm^3 | tumor volume (mm^3 ± SEM) ([1]; Table 23, 1 mg/kg i.v. Q4d×4, DAY 42): 349 mm^3 | tumor volume (mm^3 ± SEM) ([1]; Table 23, 1 mg/kg i.v. Q4d×4, DAY 47): 394 mm^3 | tumor volume (mm^3 ± SEM) ([1]; Table 23, 1 mg/kg i.v. Q4d×4, DAY 50): 377 mm^3 | tumor volume (mm^3 ± SEM) ([1]; Table 23, 1 mg/kg i.v. Q4d×4, DAY 53): 414 mm^3 | tumor volume (mm^3 ± SEM) ([1]; Table 23, 1 mg/kg i.v. Q4d×4, DAY 56): 470 mm^3 | tumor volume (mm^3 ± SEM) ([1]; Table 23, 1 mg/kg i.v. Q4d×4, DAY 60): 532 mm^3 | tumor volume (mm^3 ± SEM) ([1]; Table 23, 1 mg/kg i.v. Q4d×4, DAY 63): 509 mm^3 | tumor volume (mm^3 ± SEM) ([1]; Table 23, 1 mg/kg i.v. Q4d×4, DAY 67): 611 mm^3 | tumor volume (mm^3 ± SEM) ([1]; Table 23, 3 mg/kg i.v. Q4d×4, DAY 0): 347 mm^3 | tumor volume (mm^3 ± SEM) ([1]; Table 23, 3 mg/kg i.v. Q4d×4, DAY 4): 359 mm^3 | tumor volume (mm^3 ± SEM) ([1]; Table 23, 3 mg/kg i.v. Q4d×4, DAY 7): 326 mm^3 | tumor volume (mm^3 ± SEM) ([1]; Table 23, 3 mg/kg i.v. Q4d×4, DAY 11): 227 mm^3 | tumor volume (mm^3 ± SEM) ([1]; Table 23, 3 mg/kg i.v. Q4d×4, DAY 14): 147 mm^3 | tumor volume (mm^3 ± SEM) ([1]; Table 23, 3 mg/kg i.v. Q4d×4, DAY 18): 77 mm^3 | tumor volume (mm^3 ± SEM) ([1]; Table 23, 3 mg/kg i.v. Q4d×4, DAY 21): 16 mm^3 | tumor volume (mm^3 ± SEM) ([1]; Table 23, 3 mg/kg i.v. Q4d×4, DAY 26): 0 mm^3 | tumor volume (mm^3 ± SEM) ([1]; Table 23, 3 mg/kg i.v. Q4d×4, DAY 29): 0 mm^3 | tumor volume (mm^3 ± SEM) ([1]; Table 23, 3 mg/kg i.v. Q4d×4, DAY 32): 0 mm^3 | tumor volume (mm^3 ± SEM) ([1]; Table 23, 3 mg/kg i.v. Q4d×4, DAY 35): 0 mm^3 | tumor volume (mm^3 ± SEM) ([1]; Table 23, 3 mg/kg i.v. Q4d×4, DAY 39): 0 mm^3 | tumor volume (mm^3 ± SEM) ([1]; Table 23, 3 mg/kg i.v. Q4d×4, DAY 42): 0 mm^3 | tumor volume (mm^3 ± SEM) ([1]; Table 23, 3 mg/kg i.v. Q4d×4, DAY 47): 0 mm^3 | tumor volume (mm^3 ± SEM) ([1]; Table 23, 3 mg/kg i.v. Q4d×4, DAY 50): 0 mm^3 | tumor volume (mm^3 ± SEM) ([1]; Table 23, 3 mg/kg i.v. Q4d×4, DAY 53): 0 mm^3 | tumor volume (mm^3 ± SEM) ([1]; Table 23, 3 mg/kg i.v. Q4d×4, DAY 56): 0 mm^3 | tumor volume (mm^3 ± SEM) ([1]; Table 23, 3 mg/kg i.v. Q4d×4, DAY 60): 0 mm^3 | tumor volume (mm^3 ± SEM) ([1]; Table 23, 3 mg/kg i.v. Q4d×4, DAY 63): 0 mm^3 | tumor volume (mm^3 ± SEM) ([1]; Table 23, 3 mg/kg i.v. Q4d×4, DAY 67): 0 mm^3 | tumor volume (mm^3 ± SEM) ([1]; Table 23, 3 mg/kg i.v. Q4d×4, DAY 70): 0 mm^3 | tumor volume (mm^3 ± SEM) ([1]; Table 23, 3 mg/kg i.v. Q4d×4, DAY 76): 0 mm^3 | tumor volume (mm^3 ± SEM) ([1]; Table 23, 3 mg/kg i.v. Q4d×4, DAY 83): 0 mm^3 | tumor volume (mm^3 ± SEM) ([1]; Table 23, 3 mg/kg i.v. Q4d×4, DAY 90): 0 mm^3 | tumor volume (mm^3 ± SEM) ([1]; Table 23, 3 mg/kg i.v. Q4d×4, DAY 97): 0 mm^3 | tumor volume (mm^3 ± SEM) ([1]; Table 23, 3 mg/kg i.v. Q4d×4, DAY 103): 0 mm^3 | tumor volume (mm^3 ± SEM) ([1]; Table 23, 3 mg/kg i.v. Q4d×4, DAY 110): 0 mm^3 | tumor volume (mm^3 ± SEM) ([1]; Table 23, 3 mg/kg i.v. Q4d×4, DAY 118): 0 mm^3 | tumor volume (mm^3 ± SEM) ([1]; Table 23, 3 mg/kg i.v. Q4d×4, DAY 125): 0 mm^3
